From article PMC4336329 (PLoS ONE, 2015)
The campaign covered roughly 310,000 compounds. About 14,000 (4.5%) showed an effect of 50% or more. Effects have a minus sign here. The list shows a part of the results.

Molecular target: human ether-à-go-go-related gene (hERG) potassium channel (human, UniProt Q12809)
Test: primary screen, population patch clamp on CHO cells stably expressing hERG
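Note: peak tail current of the secondary pulse compared with the same well before compound.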

human ether-à-go-go-related gene (hERG) potassium channel, sequence (Q12809 whole entry, looked up): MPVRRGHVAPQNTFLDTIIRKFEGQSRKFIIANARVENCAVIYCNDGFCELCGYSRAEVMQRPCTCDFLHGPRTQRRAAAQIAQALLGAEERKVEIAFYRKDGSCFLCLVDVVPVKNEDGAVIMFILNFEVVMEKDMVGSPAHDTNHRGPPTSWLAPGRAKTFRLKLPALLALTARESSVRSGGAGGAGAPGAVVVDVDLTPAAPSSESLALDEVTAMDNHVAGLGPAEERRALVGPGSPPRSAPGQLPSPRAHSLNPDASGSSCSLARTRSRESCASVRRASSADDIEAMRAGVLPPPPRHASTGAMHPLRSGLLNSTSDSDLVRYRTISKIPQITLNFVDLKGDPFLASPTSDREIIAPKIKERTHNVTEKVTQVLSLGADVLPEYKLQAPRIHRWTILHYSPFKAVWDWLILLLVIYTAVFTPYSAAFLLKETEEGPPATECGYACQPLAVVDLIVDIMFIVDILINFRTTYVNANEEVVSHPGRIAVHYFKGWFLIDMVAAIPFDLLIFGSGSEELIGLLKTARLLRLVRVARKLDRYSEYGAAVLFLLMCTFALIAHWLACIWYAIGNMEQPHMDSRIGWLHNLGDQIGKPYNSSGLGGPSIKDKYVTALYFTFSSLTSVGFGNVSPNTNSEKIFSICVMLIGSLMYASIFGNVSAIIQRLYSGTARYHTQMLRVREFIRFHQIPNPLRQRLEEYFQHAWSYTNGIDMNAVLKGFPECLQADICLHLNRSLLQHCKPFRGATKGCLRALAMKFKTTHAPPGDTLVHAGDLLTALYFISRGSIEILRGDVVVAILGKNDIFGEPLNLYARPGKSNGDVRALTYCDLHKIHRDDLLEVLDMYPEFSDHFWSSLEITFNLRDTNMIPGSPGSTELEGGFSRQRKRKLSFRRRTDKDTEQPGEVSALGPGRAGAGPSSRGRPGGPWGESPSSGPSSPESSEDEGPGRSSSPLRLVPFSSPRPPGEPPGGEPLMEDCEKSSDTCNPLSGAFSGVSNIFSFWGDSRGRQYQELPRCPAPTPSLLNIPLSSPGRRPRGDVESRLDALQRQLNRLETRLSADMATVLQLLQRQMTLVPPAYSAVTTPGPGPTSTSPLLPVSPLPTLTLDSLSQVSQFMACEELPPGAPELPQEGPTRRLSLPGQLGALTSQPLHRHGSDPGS

Row | SMILES | hERG current change (%, negative = inhibition) at 10uM [%]
1 | O=C(NCc1cccnc1)c1ccc(Cl)c(S(=O)(=O)N2CCOCC2)c1 | -6.78
2 | COc1ccccc1Oc1ccc2c(c1)C(=O)N(c1ccc(C)cc1)C2=O | 10.8
3 | CCC(CC)c1nn2c(N)c(/C=C3\C(C)=Nc4ccccc43)c(=O)nc2s1 | 14
4 | CCCCn1nc(C(=O)Nc2ccc(-n3cnnn3)cc2)c2ccccc2c1=O | -11.5
5 | CCn1c2ccccc2c2nnc(SCC(=O)NCCOC)nc21 | -1.54
6 | COc1cccc(C(=O)Nc2ccc(Oc3cccc(C(F)(F)F)c3)nc2)c1 | 6.22
7 | CC(C)(C)C(=O)Nc1ccc(-c2cnco2)cc1 | 6.52
8 | [O-][n+]1cccc(C(O)c2ccccc2)c1 (stereo not shown) | 12.5
9 | O=C([C@H](Cc1ccccc1)NS(=O)(=O)c1ccc(Cl)cc1)N1CC[C@@]2(O)CCCC[C@H]2C1 | -13.4
10 | c1cnc(N2CCN(Cc3c[nH]c4ccccc34)CC2)nc1 | -36
11 | COc1cc(OC)c(C(=O)OCC(=O)Nc2cc(C)on2)cc1OC | 23
12 | NC(=O)C1CCN(C(=O)c2ccc(CS(=O)(=O)c3c(Cl)cccc3Cl)o2)CC1 | 2.63
13 | CN1CCC(OC(=O)COc2ccc(F)cc2)CC1.Cl | -23.2
14 | Cc1ccc(/C=C(\C#N)c2nc3ccccc3[nH]2)s1 | -16.7
15 | COc1ccc(-c2ccc([C@H]3[C@@H]4C=CCC[C@@]4(C)C(=O)N3Cc3ccccc3)c(F)c2)cc1OC | 0.332
16 | O=C(COc1cc2oc(=O)c3c(c2cc1Cl)CCC3)NCC1CCC(C(=O)O)CC1 (stereo not shown) | 5.36
17 | COCC1CCN(Cc2nc(COc3ccccc3)no2)C1 (stereo not shown) | 12.3
18 | COc1ccc(C)cc1NC(=O)CN1C(=O)COc2ccc(S(=O)(=O)N3CCCCCC3)cc21 | 21.8
19 | CCCCCCNc1nc(NCc2ccco2)nc(OCC)n1 | -28.9
20 | Fc1ccc(-c2nnc3ccc(N4CCc5ccccc5C4)nn23)cc1 | -24.4
21 | CC(OC(=O)c1nc(-c2ccccc2)n(-c2ccccc2)n1)C(=O)Nc1cc(Cl)cc(Cl)c1 (stereo not shown) | -6.35
22 | Oc1ccc2cc(Br)ccc2c1CN1CCCC1 | -11.1

Row | SMILES | hERG current change (%, negative = inhibition) at 10uM [%]
23 | CCOc1ccc(S(=O)(=O)NCCC(=O)NCCCSc2ccccc2)cc1 | -6.32
24 | Cc1cccc(/N=C/c2c(O)ccc3oc4c(c23)CCCC4)n1 | 1.07
25 | COC(=O)c1ccc(NC(=O)C23CC4CC(C2)CC(n2cncn2)(C4)C3)cc1 | -22
26 | Br.Cc1csc(=Nc2ccccc2)n1CCO | -3.39
27 | O=C1Cc2cc(NS(=O)(=O)c3ccc(F)cc3)cc3c2N1CCC3 | -14.6
28 | O=[N+]([O-])c1cccc2ccc(/C=C/c3cccc(Br)c3)nc12 | 18.8
29 | O=C1N(CN2CCOCC2)c2ccccc2C1(O)c1c[nH]c2ccccc12 (stereo not shown) | 16.8
30 | N/C(CN1CCSCC1)=N\OCc1c(F)cccc1Cl | 7.15
31 | COc1cccc(CC(=O)OCC(=O)NC(C)c2ccc(F)cc2)c1 (stereo not shown) | 6.19
32 | Cc1ccc(C(=O)COc2ncnc3cc(Cl)ccc23)cc1 | -1.95
33 | COc1ccc([C@H]2CC(=O)C=C(c3ccc(C(F)(F)F)c(C(F)(F)F)c3)C2)cc1OC | 16.3
34 | Cn1c(=S)n(C)c2ccccc21 | 26.6
35 | NC(=NCCc1c[nH]c2ccccc12)NS(=O)(=O)c1ccc(F)cc1 | -4.37
36 | CCN(CC)S(=O)(=O)c1ccc(C)c(NC(=O)COC(=O)c2ccc(C)c(S(=O)(=O)N3CCOCC3)c2)c1 | -27.3
37 | CCn1cc(Br)c(C(=O)Nc2ccc(C(=O)OC(C)C)cc2)n1 | -3.53
38 | NC(=O)c1c(NC(=O)c2ccc(F)cc2Cl)sc2c1CCC2 | 8.82
39 | O=C(O)CN1C(=O)/C(=C\c2cc(Br)ccc2OCc2ccc(F)cc2)SC1=S | 3.09
40 | Cc1cccc(N=C2NC(=O)/C(=C/c3cccn3C)S2)c1 | 17.4
41 | Cn1ccnc1C(OC(=O)c1ccccc1)C(F)(F)F (stereo not shown) | 21
42 | COC(=O)C(Cc1ccccc1)NC(=O)CCc1c[nH]c2ccccc12 (stereo not shown) | -8.09
43 | Cc1cc(C)c2c(N)c(C(=O)c3cccc(Cl)c3)sc2n1 | 1.67
44 | CC(=O)N[C@H]1[C@H](OCc2ccccc2F)O[C@H](COC(C)=O)[C@@H](OC(C)=O)[C@@H]1OC(C)=O | 8.2

Row | SMILES | hERG current change (%, negative = inhibition) at 10uM [%]
45 | O=C(NC1CC1)C1CCN(S(=O)(=O)c2cc(Cl)ccc2Cl)CC1 | 6.05
46 | CCc1nnc(NC(=O)c2nc(S(=O)(=O)Cc3ccccc3)ncc2Cl)s1 | 2.69
47 | COCCCNC(=O)C1CCC(=O)N(c2ccc3c(c2)OCO3)C1c1ccc(OC)cc1 (stereo not shown) | 14.8
48 | COc1ccc(C(CC(=O)Nc2cc([N+](=O)[O-])ccc2OC)c2ccccc2)cc1 (stereo not shown) | 8.82
49 | CC(C)c1ccc(C(=O)NCCCN(C)C)cc1 | -17.1
50 | CNc1ccc(Br)cc(C(=O)/C=C/c2ccc3c(c2)OCO3)c1=O | -10.8
51 | COc1ccc(CCNC(=O)c2ccccc2NS(=O)(=O)c2c(F)cccc2F)cc1 | 14.9
52 | CCOC(=O)COn1c(=O)c(=O)n(O)c2ccccc21 | 7.76
53 | Cl.c1ccc(CC2CCCNC2)cc1 (stereo not shown) | 6.14
54 | CN1CCN(c2ccc(CNS(=O)(=O)c3ccccc3)cc2)CC1 | 0.0513
55 | NS(=O)(=O)c1ccc(NC(=O)CSc2nc3ccccc3nc2N2CCOCC2)cc1 | 7.71
56 | COc1ccc(CCn2c(C3CCCCC3)nc3c(c(=O)c4ccccc4n3C)c2=O)cc1 | 4.13
57 | COc1ccc(C2CC(c3cccs3)=NN2C(=O)CSc2nnc(N)s2)cc1OC (stereo not shown) | -4.6
58 | O=c1ccnc(SCCc2ccc([N+](=O)[O-])cc2)[nH]1 | -34
59 | O=C(COc1ccc(C(=S)N2CCOCC2)cc1)Nc1ccccc1C(F)(F)F | -0.634
60 | CCCCn1c(SCc2cccc([N+](=O)[O-])c2)nc2ccsc2c1=O | 10
61 | O=C(CCC1CCN(Cc2ccc(Cl)cc2)CC1)NC1CC1 | -65.9
62 | C=CCSc1nnc(NC(=O)COc2ccccc2)s1 | -2.18
63 | Cc1ccc[n+](C2C(c3ccc([N+](=O)[O-])cc3)C(C#N)=C([S-])NC2(O)C2CC2)c1 (stereo not shown) | 0.00258
64 | CCOC(=O)c1nn(-c2sc(C(=O)OC)c(C)c2C(=O)OC)cc1O | 11.1
65 | NC(=O)c1ccccc1OCC(=O)Nc1cccnc1Cl | 6.5
66 | CCOC(=O)c1c(N)sc2c1CCCC2=O | 15.9

Row | SMILES | hERG current change (%, negative = inhibition) at 10uM [%]
67 | CCCn1c(SCC(=O)Nc2cc(C(=O)O)ccc2C)nc2sc3c(c2c1=O)CCC3 | 7.84
68 | Cc1cccc(NC(=O)CN(C)S(=O)(=O)c2cccs2)c1 | 2.18
69 | COc1ccc(CCN=C2SCC(=O)N2C)cc1OC | -4.8
70 | CCOc1cc2c(cc1OCC)C(C(=O)O)C(c1cc(Br)c(O)c(OC)c1)N(C)C2=O (stereo not shown) | -3.42
71 | CN(Cc1ccccc1)C(=O)c1ccc(COc2ccccc2)cc1 | -0.833
72 | Cc1cc(-c2nnc(-c3cccc(C(F)(F)F)c3)o2)no1 | 3.54
73 | CC1CCC2(CC1)NC(=O)N(CC(=O)N1CCN(C(=O)c3ccco3)CC1)C2=O (stereo not shown) | -12.5
74 | Cn1cnnc1SCC(=O)Nc1ccccc1Sc1ccccc1 | -16.7
75 | O=C(NCCN1CCOCC1)/C(=C/c1ccc(Cl)cc1)NC(=O)c1ccccc1 | -76.5
76 | CCn1c(CC(=O)Nc2ccccc2OC)nnc1SCC(=O)Nc1ccccc1F | 6.94
77 | O=S(=O)(N1CCCCCC1)N1CCN(S(=O)(=O)N2CCOCC2)CC1 | -2.7
78 | COC(=O)CC1C(=O)NCCN1C(=S)NC(=O)C(c1ccccc1)c1ccccc1 (stereo not shown) | 9.05
79 | COc1ccccc1N1CCN(CC(O)c2c(C)[nH]c3ccccc23)CC1 (stereo not shown) | -49.1
80 | CC(N)Cc1c[nH]c2cc3c(cc12)OCCO3.Cl (stereo not shown) | 2.69
81 | Cc1cc(=O)[nH]c(SCC(=O)Nc2cc(S(=O)(=O)N3CCCC3)ccc2Cl)n1 | 10.1
82 | CCCCCCn1c(N2CCC(C(N)=O)CC2)nc2c1c(=O)[nH]c(=O)n2C | -49.9
83 | Cc1cccc(N2C(=O)CC(NNc3nc4ccccc4s3)C2=O)c1 (stereo not shown) | 10.6
84 | CC(C)Cc1nnc(NC(=O)C2CC(=O)N(Cc3ccccc3)C2)s1 (stereo not shown) | 0.385
85 | CCn1ncc(/C=N\NC(=O)COc2ccccc2)c1C | -4.07
86 | CC1(C)Cc2ccccc2-c2nnc(SCC(=O)Nc3nc4ccccc4s3)n21 | -74.4
87 | CCOC(=O)N1CCC(NS(=O)(=O)c2ccc(C)cc2)CC1 | 4.35
88 | CC(=O)Nc1ccccc1Nc1nc(NCCO)nc(N2CCCC2)n1 | 7.21
